# Test results published in the BET-seq Pho4 binding data (Le et al. 2018).
# The list shows a part of the results. These are noisy estimates, calculated here from bound and input reads.
# Target: T1, Pho4 (S. cerevisiae) (UniProt P07270)
# T1 sequence: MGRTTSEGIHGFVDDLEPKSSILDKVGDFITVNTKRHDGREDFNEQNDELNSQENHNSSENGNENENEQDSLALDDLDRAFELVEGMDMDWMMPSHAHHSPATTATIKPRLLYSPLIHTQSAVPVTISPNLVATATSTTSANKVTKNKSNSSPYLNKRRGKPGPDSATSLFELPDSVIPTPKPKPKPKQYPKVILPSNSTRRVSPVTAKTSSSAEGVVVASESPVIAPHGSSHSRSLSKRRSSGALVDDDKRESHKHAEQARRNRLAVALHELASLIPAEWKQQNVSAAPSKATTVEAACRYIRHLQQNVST
# Assay: relative binding free energy (BET-seq); higher = weaker binding
# Settings: reference: library average
row,Sequence,relative binding free energy [kcal/mol]
1,GGAAACACGTGTGAGT,0.01
2,GTAGACACGTGTCTTG,0.09
3,GTTCTCACGTGAATGT,0.54
4,TTGTACACGTGAGGGG,0.39
5,TAAGGCACGTGGGAAT,-0.22
6,TAGTTCACGTGTATAT,0.22
7,TAAAACACGTGGCGGT,-0.13
8,TAGACCACGTGGTTTT,0
9,GTAAGCACGTGTGCGT,-0.06
10,TTGTCCACGTGGCGGA,0
11,GCCTGCACGTGATGGG,0.19
12,CGTTACACGTGCTAGG,0.08
13,CTGTTCACGTGGGGAA,0.13
14,ATTCTCACGTGTGGTT,0.22
15,GGTGCCACGTGTCGGG,0.04
16,ATTCGCACGTGGGGAG,-0.02
17,TGGGACACGTGCTGGA,0.03
18,TACCGCACGTGTTGTG,0
19,TTGTGCACGTGACTTT,0.06
20,TTGGGCACGTGAAAGG,0.07
21,TGTGCCACGTGGGCGG,-0.2
22,TTCGTCACGTGTATCA,0.13
23,TTTGCCACGTGGCGTG,-0.16

row,Sequence,relative binding free energy [kcal/mol]
1,GGTTGCACGTGGATTG,-0.01
2,GACTTCACGTGTGAGG,0.27
3,GTTCTCACGTGTGAGT,0.38
4,GGTGTCACGTGAAGCT,0.53
5,AAGCTCACGTGTTGTT,0.12
6,TTACACACGTGTAGTG,0.14
7,AATGGCACGTGTTATA,-0.08
8,ATGATCACGTGTTTAG,0.05
9,TCATTCACGTGGGTTT,0.06
10,TGTACCACGTGTGGAT,0
11,CGATGCACGTGGTGGT,-0.16
12,CTCTGCACGTGGTGGG,-0.02
13,ATGGTCACGTGTTATC,0.08
14,CGGTGCACGTGGTATG,-0.09
15,CGGAACACGTGATGGT,0.26
16,CTGTGCACGTGTAGGC,-0.03
17,AGACGCACGTGTGTTG,-0.16
18,TGGGACACGTGGTAAT,0.06
19,GAGGACACGTGTTATG,0.09
20,AAGTGCACGTGTAGGC,-0.03
21,TACGACACGTGGGGTG,-0.08
22,GGGAGCACGTGGCTGA,-0.15
23,GGCATCACGTGTGCGG,0.13

row,Sequence,relative binding free energy [kcal/mol]
1,AAGATCACGTGCGGGA,0.24
2,CGTGGCACGTGTGGGG,-0.11
3,GTAATCACGTGTAGTG,0.21
4,ATGTACACGTGTGGCT,0.16
5,AGTGGCACGTGTTGGG,-0.02
6,TTAGCCACGTGTGGGT,-0.16
7,TGGTTCACGTGCGGAG,0.13
8,GTCAGCACGTGGGGGG,-0.15
9,ATTGGCACGTGACATG,-0.01
10,TAGTTCACGTGCGTGA,0.18
11,GAAGTCACGTGGGATG,0.03
12,GGGAACACGTGGGGAA,0.09
13,GTATTCACGTGTAATG,0.24
14,TTTCGCACGTGTTTGC,-0.03
15,GTGTACACGTGGCGTG,0.07
16,ATGGTCACGTGTAGCG,0.15
17,CGCAGCACGTGGTGGG,-0.3
18,CGAGGCACGTGGAGCG,-0.09
19,TCGATCACGTGTAGGT,0.17
20,TTTTGCACGTGAAATG,0.28
21,TGCTTCACGTGTGAGT,0.26
22,TTTTCCACGTGAATAG,0.34
23,GTTTTCACGTGGGCAA,0.32

row,Sequence,relative binding free energy [kcal/mol]
1,AGTGACACGTGTCGGG,-0.06
2,TAGGACACGTGGTTTT,0.12
3,TTTGTCACGTGTGATG,0.23
4,TGGTTCACGTGTTTGC,0.2
5,GGGGTCACGTGAGTAC,0.4
6,ACGCTCACGTGGGGGT,0
7,TCAGTCACGTGTGCGG,-0.06
8,GTTGGCACGTGGCTTT,-0.05
9,GTGAGCACGTGGAATG,0.15
10,TGGTTCACGTGTCTCG,0.23
11,AACTTCACGTGGATGG,0.3
12,TTCTTCACGTGATAAT,0.35
13,AGTCGCACGTGATAGT,0.14
14,TAATTCACGTGGGAGA,0.27
15,CATGTCACGTGGCGTG,-0.06
16,TGAATCACGTGAGATG,0.41
17,GGAGGCACGTGATGAG,0.04
18,TGATTCACGTGAATGC,0.55
19,CAATACACGTGAGTGT,0.27
20,CTATACACGTGTAGGT,0.04
21,ATTGACACGTGTCTTG,0.02
22,TTGATCACGTGGATGA,0.26
23,TAGAACACGTGACTGG,0.24

row,Sequence,relative binding free energy [kcal/mol]
1,TCTTCCACGTGTGTTT,0.11
2,CACTTCACGTGTTTTT,0.17
3,CAGGTCACGTGGGCAG,0.08
4,TGTCTCACGTGCGTTT,0.22
5,TAAAACACGTGGGGGG,-0.17
6,GGTCGCACGTGGAAAG,0.05
7,CGTTTCACGTGGGAGT,0.03
8,TGCGGCACGTGATCGG,-0.12
9,GCAGTCACGTGGGTAG,-0.06
10,TGGTACACGTGGTTTG,0.04
11,TCGGTCACGTGCTATT,0.04
12,GGTATCACGTGGCGGA,0.03
13,TGGAACACGTGGGTTC,-0.09
14,TGCGTCACGTGATGTG,0.14
15,GAATACACGTGGTGAT,0.18
16,TATTACACGTGGTGTG,0.08
17,TTAATCACGTGAATTT,0.3
18,GATTTCACGTGTATCG,0.36
19,TTCAACACGTGTGGGG,0.09
20,TCTGGCACGTGCTAGG,-0.14
21,AGATTCACGTGCGTGA,0.26
22,TTTAGCACGTGGTGAG,-0.08
23,TAACGCACGTGGTTAT,-0.18
